Results taken from PubChem BioAssay AID504706 (National Center for Advancing Translational Sciences (NCATS), 2011).
The campaign covered roughly 320,000 compounds. About 200 (0.062%) were called active. This list was built around the results that the source calls inconclusive (neither active nor inactive); the mix of calls is not that of the screen. The call rests on the fitted dose curve; in most records, active means well fitted activation curve with a large enough effect; inconclusive means small, poorly fitted or top-dose-only effect; inactive means no such curve, though single readings can be large or run the other way. Potencies of inconclusive entries are left out as doubtful fits.

Assay: qHTS assay for re-activators of p53 using a Luc reporter; further: nearly all actives have a fitted effect of over 45% in size; on activity change, positive = activation: % of control where 0% means no effect
Conditions: H1299 p53-A138V BP100-luciferase reporter, luminescence, 24 h; series mostly up to 92.2 µM; activity change, positive = activation: at the top concentration
Method in brief: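 p53-null H1299 cells stably carrying temperature-sensitive p53-A138V and a BP100-luciferase reporter were pinned with compounds (4-point, 1:5 series) and held 24 hrs at 37 deg C. Luminescence was read 10 min after detection reagent.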
Potency means the concentration at half of the fitted maximal effect; tags describe the fitted curve by direction and shape.

SMILES | activity change, positive = activation | Potency
Cc1cccc(NS(=O)(=O)c2ccc(C(=O)NCC(c3ccco3)N3CCCCC3)cc2)c1C (stereo not drawn) | inactive: -9.99% | –
COc1cc(C(=O)CSc2nnc(-c3ccc(O)cc3)n2CC2CCCO2)ccc1NC(C)=O (stereo not drawn) | – | inconclusive [activator, single point]
Cc1ccc(S(=O)(=O)NC(CC(=O)NC2CCCC2)c2ccco2)cc1 (stereo not drawn) | inactive: 4.74% | –
COc1ccc2c(c1)CC/C(=C\C=C\c1ccccc1OC)C2=O | – | inconclusive [activator, partial curve, poor fit]
CCCc1cc(C(=O)Nc2cccnc2Cl)no1 | inactive: 15.3% | –
Cc1ccc(Nc2c(N)c(=O)oc3ccccc23)cc1 | – | inconclusive [activator, partial curve, poor fit]
CC(C)=C[C@@H]1C[C@H](C)[C@H]2CC[C@H](C)c3c(O)c(O)c(C)c1c32 | – | inconclusive [activator, partial curve, poor fit]
COc1cc(SC)ccc1C(=O)Nc1ccc(C)cc1C | – | inconclusive [activator, partial curve, poor fit]
CSC1=NSC2=NC(=O)/C(=C\c3ccc(OC(=O)c4ccco4)cc3)C(=N)N12 | – | inconclusive [activator, partial curve]
Cc1oc(-c2cccs2)nc1CSCC(=O)NC1CC1 | inactive: 0.184% | –
CCn1cc(Br)c(C(=O)Nc2ccc(Cl)c(Cl)c2)n1 | – | inconclusive [activator, full curve, poor fit]
O=C(N/N=C\C=C\c1ccc([N+](=O)[O-])o1)c1cccs1 | – | inconclusive [activator, partial curve, poor fit]
O=C(C1=NN[C@@H]2C(=O)N(c3cccc(F)c3)C(=O)[C@H]12)c1ccc2ccccc2n1 | – | inconclusive [activator, full curve, poor fit]
Cc1ccnn1CC(=O)N/N=C/c1ccc([N+](=O)[O-])s1 | inactive: 25% | –
Cc1ccc(NC(=O)CCCn2c(=O)[nH]c3ccsc3c2=O)cc1 | – | inconclusive [activator, single point]
Cc1ccc(S(=O)(=O)Nc2cccc(C(=O)N3CCC(C(N)=O)CC3)c2)cc1 | – | inconclusive [activator, partial curve, poor fit]
Nc1ccc2oc(-c3ccc4nc[nH]c4c3)nc2c1 | inactive: 8.81% | –
CC(C)(C)Nc1nc(Nc2ccc([N+](=O)[O-])cc2)nc(NC(C)(C)C)n1 | – | inconclusive [activator, partial curve, poor fit]
